The other results are listed elsewhere or left out. Single values are uncertain, as repeats are few or missing.

The record followed here is the supplement of paper PMC4604168 (melanoma cell lines).
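Note: cells treated in 1,536-well plates, then fixed and DAPI-stained, with nuclei counted from automated high-throughput microscope images.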

The subject of this experiment is WM3619. The experiment can be described thus: cell count relative to DMSO control; melanoma cells; higher = more viable cells. As to conditions: library dose: standard library concentration; 72 h.
In the case of `N#CC[C@H](C1CCCC1)n1cc(-c2ncnc3[nH]ccc23)cn1` [ruxolitinib] + O=C(Nc1cccc(Cl)c1)Nc1ncc(CCNc2ncnc3ccsc23)s1 [SNS314] (first compound 5 µM, partner dose 0.004 µM), the cell count was determined as 84.4%.
To `N#CC[C@H](C1CCCC1)n1cc(-c2ncnc3[nH]ccc23)cn1` [ruxolitinib] + CN(NC(=O)CC(=O)NN(C)C(=S)c1ccccc1)C(=S)c1ccccc1 [STA4783] (first compound 5 µM, partner dose 0.03 µM) belongs 3.61%.
To `N#CC[C@H](C1CCCC1)n1cc(-c2ncnc3[nH]ccc23)cn1` [ruxolitinib] + O=C(CCCCCCC(=O)Nc1ccccc1)NO [vorinostat] (first compound 5 µM, partner dose 0.4 µM) belongs 71%.
Regarding `Cc1cc(Nc2cc(N3CCN(C)CC3)nc(Sc3ccc(NC(=O)C4CC4)cc3)n2)n[nH]1` [Tozasertib] + OCCn1cc(-c2cnc3nnn(Cc4ccc5ncccc5c4)c3n2)cn1 [PF04217903] (first compound 0.03 µM, partner dose 5 µM), the cell count came to 67.3%.
`N#CC[C@H](C1CCCC1)n1cc(-c2ncnc3[nH]ccc23)cn1` [ruxolitinib] + Cc1cc(N2CCOCC2)cc2[nH]c(-c3c(NC[C@@H](O)c4cccc(Cl)c4)cc[nH]c3=O)nc12 [BMS536924] (first compound 5 µM, partner dose 1 µM): the cell count is 114%.
For `N#CC[C@H](C1CCCC1)n1cc(-c2ncnc3[nH]ccc23)cn1` [ruxolitinib] + C=CCn1c(=O)c2cnc(Nc3ccc(N4CCN(C)CC4)cc3)nc2n1-c1cccc(C(C)(C)O)n1 [MK1775] (first compound 5 µM, partner dose 0.1 µM) the value was 46.5%; for `N#CC[C@H](C1CCCC1)n1cc(-c2ncnc3[nH]ccc23)cn1` [ruxolitinib] + C[C@@H]1CCN(C(=O)CC#N)C[C@@H]1N(C)c1ncnc2[nH]ccc12 [CP690550] (first compound 5 µM, partner dose 5 µM), 112%.
To `CC[C@]1(O)C[C@H]2CN(CCc3c([nH]c4ccccc34)[C@@](C(=O)OC)(c3cc4c(cc3OC)N(C=O)[C@H]3[C@@](O)(C(=O)OC)[C@H](OC(C)=O)[C@]5(CC)C=CCN6CC[C@]43[C@@H]65)C2)C1` [vincristine] + CN(C)S(=O)(=O)c1ccc2c(c1)/C(=C/c1cc3c([nH]1)CCCC3)C(=O)N2 [SU6656] (first compound 0.0005 µM, partner dose 2 µM) belongs 40.4%; to `Cc1cc(Nc2cc(N3CCN(C)CC3)nc(Sc3ccc(NC(=O)C4CC4)cc3)n2)n[nH]1` [Tozasertib] + Cc1cc(N2CCOCC2)cc2[nH]c(-c3c(NC[C@@H](O)c4cccc(Cl)c4)cc[nH]c3=O)nc12 [BMS536924] (first compound 0.03 µM, partner dose 1 µM), 64.6%; to `N#CC[C@H](C1CCCC1)n1cc(-c2ncnc3[nH]ccc23)cn1` [ruxolitinib] + Cn1c(Nc2ccc(C(F)(F)F)cc2)nc2cc(Oc3ccnc(-c4ncc(C(F)(F)F)[nH]4)c3)ccc21 [CHIR265] (first compound 5 µM, partner dose 0.4 µM), 60.7%.
To `CC[C@]1(O)C[C@H]2CN(CCc3c([nH]c4ccccc34)[C@@](C(=O)OC)(c3cc4c(cc3OC)N(C=O)[C@H]3[C@@](O)(C(=O)OC)[C@H](OC(C)=O)[C@]5(CC)C=CCN6CC[C@]43[C@@H]65)C2)C1` [vincristine] + Cc1ccc(NC(=O)c2cccc(N(C)C)c2)cc1NC(=O)c1ccc(O)cc1 [ZM336372] (first compound 0.0005 µM, partner dose 10 µM) belongs 51.6%.
In turn, `N#CC[C@H](C1CCCC1)n1cc(-c2ncnc3[nH]ccc23)cn1` [ruxolitinib] + Cc1ccc(NC(=O)c2cccc(N(C)C)c2)cc1NC(=O)c1ccc(O)cc1 [ZM336372] (first compound 5 µM, partner dose 10 µM) registered a cell count of 98.4%.
For `Cc1cc(Nc2cc(N3CCN(C)CC3)nc(Sc3ccc(NC(=O)C4CC4)cc3)n2)n[nH]1` [Tozasertib] + CO[C@@H]1[C@H](N(C)C(=O)c2ccccc2)C[C@H]2O[C@]1(C)n1c3ccccc3c3c4c(c5c6ccccc6n2c5c31)C(=O)NC4 [Midostaurin] (first compound 0.03 µM, partner dose 0.4 µM) the value was 59.7%; for `N#CC[C@H](C1CCCC1)n1cc(-c2ncnc3[nH]ccc23)cn1` [ruxolitinib] + COc1cc(Nc2ncc(F)c(Nc3ccc4c(n3)NC(=O)C(C)(C)O4)n2)cc(OC)c1OC [Tamatinib] (first compound 5 µM, partner dose 2 µM), 38.7%.
Compound `Cc1cc(Nc2cc(N3CCN(C)CC3)nc(Sc3ccc(NC(=O)C4CC4)cc3)n2)n[nH]1` [Tozasertib] + O=C(O)c1ccc(-c2c[nH]c3ncc(-c4ccccc4)cc23)cc1C1CCCC1 [GSK650394] (first compound 0.03 µM, partner dose 0.8 µM) came in with a cell count of 88.5%.
`Cc1cc(Nc2cc(N3CCN(C)CC3)nc(Sc3ccc(NC(=O)C4CC4)cc3)n2)n[nH]1` [Tozasertib] + COc1cc(Nc2ncc(F)c(Nc3ccc4c(n3)NC(=O)C(C)(C)O4)n2)cc(OC)c1OC [Tamatinib] (first compound 0.03 µM, partner dose 2 µM): the cell count stood at 66.1%.
`Cc1cc(Nc2cc(N3CCN(C)CC3)nc(Sc3ccc(NC(=O)C4CC4)cc3)n2)n[nH]1` [Tozasertib] + Cn1cncc1[C@@](N)(c1ccc(Cl)cc1)c1ccc2c(c1)c(-c1cccc(Cl)c1)cc(=O)n2C [tipifarnib] (first compound 0.03 µM, partner dose 0.05 µM): the cell count turned out to be 84.4%.
In the case of `CC[C@]1(O)C[C@H]2CN(CCc3c([nH]c4ccccc34)[C@@](C(=O)OC)(c3cc4c(cc3OC)N(C=O)[C@H]3[C@@](O)(C(=O)OC)[C@H](OC(C)=O)[C@]5(CC)C=CCN6CC[C@]43[C@@H]65)C2)C1` [vincristine] + NC(=O)Nc1cc(-c2cccc(F)c2)sc1C(=O)N[C@H]1CCCNC1 [AZD7762] (first compound 0.0005 µM, partner dose 0.1 µM), the cell count worked out at 18.3%.
To `Cc1cc(Nc2cc(N3CCN(C)CC3)nc(Sc3ccc(NC(=O)C4CC4)cc3)n2)n[nH]1` [Tozasertib] + CN(C)S(=O)(=O)c1ccc2c(c1)/C(=C/c1cc3c([nH]1)CCCC3)C(=O)N2 [SU6656] (first compound 0.03 µM, partner dose 2 µM) belongs 64.1%; to `N#CC[C@H](C1CCCC1)n1cc(-c2ncnc3[nH]ccc23)cn1` [ruxolitinib] + COc1cc2c(Oc3ccc4[nH]c(C)cc4c3F)ncnc2cc1OCCCN1CCCC1 [cediranib] (first compound 5 µM, partner dose 2 µM), 117%.
The compound `CC[C@]1(O)C[C@H]2CN(CCc3c([nH]c4ccccc34)[C@@](C(=O)OC)(c3cc4c(cc3OC)N(C=O)[C@H]3[C@@](O)(C(=O)OC)[C@H](OC(C)=O)[C@]5(CC)C=CCN6CC[C@]43[C@@H]65)C2)C1` [vincristine] + COc1cc2c(Oc3ccc4[nH]c(C)cc4c3F)ncnc2cc1OCCCN1CCCC1 [cediranib] (first compound 0.0005 µM, partner dose 2 µM) returned a cell count of 74.8%.
For `CC[C@]1(O)C[C@H]2CN(CCc3c([nH]c4ccccc34)[C@@](C(=O)OC)(c3cc4c(cc3OC)N(C=O)[C@H]3[C@@](O)(C(=O)OC)[C@H](OC(C)=O)[C@]5(CC)C=CCN6CC[C@]43[C@@H]65)C2)C1` [vincristine] + O=C(Nc1cccc(Cl)c1)Nc1ncc(CCNc2ncnc3ccsc23)s1 [SNS314] (first compound 0.0005 µM, partner dose 0.004 µM) the value was 52.3%.
